# Test results from PubChem BioAssay (NCI).
#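 Grown in 96-well plates, cells were treated for 48 hours with each compound at five concentrations. Insufficient inhibition: endpoint recorded as highest concentration tested. GI50 = concentration required for 50% inhibition of growth.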 For part of its entries the source gives two or more results. The list is limited to them. An entry can have further records. For part of these data: Records of one sample usually come from different ranges of test concentrations, which the source does not state; a value can be the end of its range. For part of these data: The values listed for one entry are repeated measurements in other runs, samples, wells, individuals or studies. Records carry a tag for their origin. A, B and so on number the origins entry by entry.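 TGI is the concentration that stops growth completely.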
# Tests used:
# Experiment in all cases: growth of human tumour cells (NCI), 48 h
# [1] = tested on: SF-268 CNS
# [2] = tested on: RXF 393 renal
# [3] = tested on: SK-MEL-28 melanoma
# [4] = tested on: NCI-H460 lung
# [5] = tested on: HCT-15 colon
# [6] = tested on: NCI-H23 lung
# [7] = tested on: SK-OV-3 ovarian
# [8] = tested on: ACHN renal
# [9] = tested on: HCC-2998 colon
# [10] = tested on: OVCAR-4 ovarian
# [11] = tested on: U251 CNS
# [12] = tested on: HL-60(TB) leukemia
# [13] = tested on: MCF7 breast
# [14] = tested on: SK-MEL-5 melanoma
# [15] = tested on: HOP-62 NSCLC
# [16] = tested on: IGROV1 ovarian
# [17] = tested on: M14 melanoma
# [18] = tested on: MALME-3M melanoma
# [19] = tested on: OVCAR-8 ovarian
# [20] = tested on: SF-295 CNS
# [21] = tested on: NCI-H226 lung
# [22] = tested on: RXF-631 renal
# [23] = tested on: T-47D breast
# [24] = tested on: HS 578T breast
# [25] = tested on: LOX IMVI melanoma
# [26] = tested on: NCI-H522 lung
# [27] = tested on: TK-10 renal
# [28] = tested on: CCRF-CEM leukemia
# [29] = tested on: UACC-257 melanoma
# [30] = tested on: A549 NSCLC
# [31] = tested on: K-562 leukemia
# [32] = tested on: A498 renal
# [33] = tested on: MDA-MB-435
# [34] = tested on: NCI/ADR-RES ovarian
# [35] = tested on: 786-0 renal
# [36] = tested on: DU-145 prostate
# [37] = tested on: SF-539 CNS
# [38] = tested on: OVCAR-3 ovarian
# [39] = tested on: SW-620 colon
smiles,measurement,setting,value
COc1cc2c3c(n(CCCNCCN4CCOCC4)c(=O)c2cc1OC)-c1cc2c(cc1C3=O)OCO2,GI50,[1],8.01 nM [1 test] and 2.87 µM [mean of 2 tests]
same,GI50,[2],270 nM and 5.83 µM
same,TGI,[2],1.13 µM and > 100 µM
same,TGI,[3],50 µM [1 test] and 4.32 µM [mean of 2 tests]
same,GI50,[4],< 5 nM [1 test] and 254 nM [mean of 2 tests]
same,TGI,[4],718 nM [1 test] and > 100 µM [mean of 2 tests]
same,TGI,[5],1.36 µM [1 test] and > 100 µM [mean of 2 tests]
same,GI50,[6],< 5 nM and 825 nM
same,TGI,[7],50 µM and 3.81 µM
same,GI50,[8],< 5 nM and 461 nM
same,GI50,[9],< 5 nM and 1.12 µM
same,TGI,[9],153 nM and 2.53 µM
same,GI50,[10],199 nM [1 test] and 2.78 µM [mean of 2 tests]
same,GI50,[11],< 5 nM and 663 nM
same,TGI,[12],1.63 µM [1 test] and > 30.6 µM [mean of 2 tests]
same,GI50,[13],< 5 nM [1 test] and 841 nM [mean of 2 tests]
same,TGI,[13],519 nM [1 test] and > 100 µM [mean of 2 tests]
same,GI50,[14],142 nM [1 test] and 2.39 µM [mean of 2 tests]
same,GI50,[15],< 5 nM and 225 nM
CCCCCCCCCC(=O)N[C@H]1CCc2cc(OC)c(OC)c(OC)c2-c2ccc(SC)c(=O)cc21,TGI,[1],162 nM and 2.45 µM
same,TGI,[16],982 nM and > 100 µM
same,TGI,[17],63 nM and 3.33 µM
same,TGI,[18],70.4 nM and > 100 µM
same,TGI,[19],179 nM and 10.9 µM
same,TGI,[20],60 nM and 71.8 µM
same,TGI,[21],53 nM and 3.61 µM
same,TGI,[22],49.5 nM and 13.2 µM
COc1ccc(Cn2cc(Cn3c(=O)c(-c4nc5ccccc5[nH]4)cc4ccccc43)nn2)c(OC)c1OC,TGI,[1],1.97 µM and 26.8 µM
same,TGI,[23],1.35 µM and > 100 µM
same,TGI,[24],873 nM and > 100 µM
same,TGI,[25],2.66 µM and > 100 µM
same,TGI,[19],1.97 µM and > 100 µM
same,TGI,[26],698 nM and > 100 µM
same,TGI,[13],897 nM and > 100 µM
same,TGI,[27],1.82 µM and 74.4 µM
same,TGI,[28],6.43 µM and > 100 µM
same,TGI,[29],4.58 µM and > 100 µM
same,TGI,[30],1.78 µM and > 100 µM
O=[N+]([O-])c1ccc(O)c2ncccc12,GI50,[31],"> 100 µM [sample A, 1 test] and 3.17 µM [sample B, 1 test]"
same,TGI,[23],"> 100 µM [sample A, 1 test] and 8.44 µM [sample B, 1 test]"
same,GI50,[2],"> 100 µM [sample A, 1 test] and 4.72 µM [sample B, 1 test]"
same,GI50,[3],"> 100 µM [sample A, 1 test] and 5.8 µM [sample B, 1 test]"
same,TGI,[32],"> 100 µM [sample A, 1 test] and 9.84 µM [sample B, 1 test]"
same,GI50,[33],"> 100 µM [sample A, 1 test] and 3.31 µM [sample B, 1 test]"
same,TGI,[34],"> 100 µM [sample A, 1 test] and 9.76 µM [sample B, 1 test]"
same,GI50,[35],"> 100 µM [sample A, 1 test] and 2.93 µM [sample B, 1 test]"
same,GI50,[36],"> 100 µM [sample A, 1 test] and 3.68 µM [sample B, 1 test]"
same,GI50,[37],"> 100 µM [sample A, 1 test] and 4.04 µM [sample B, 1 test]"
same,TGI,[26],"> 100 µM [sample A, 1 test] and 5.63 µM [sample B, 1 test]"
same,TGI,[10],"> 100 µM [sample A, 1 test] and 6.93 µM [sample B, 1 test]"
same,GI50,[12],"> 100 µM [sample A, 1 test] and 2.31 µM [sample B, 1 test]"
same,TGI,[12],"> 100 µM [sample A, 1 test] and 5.64 µM [sample B, 1 test]"
same,GI50,[21],"> 100 µM [sample A, 1 test] and 3.58 µM [sample B, 1 test]"
same,TGI,[38],"> 100 µM [sample A, 1 test] and 6.81 µM [sample B, 1 test]"
same,GI50,[28],"> 100 µM [sample A, 1 test] and 2.75 µM [sample B, 1 test]"
same,TGI,[14],"> 100 µM [sample A, 1 test] and 7.79 µM [sample B, 1 test]"
same,TGI,[15],"> 100 µM [sample A, 1 test] and 8.87 µM [sample B, 1 test]"
same,GI50,[29],"> 100 µM [sample A, 1 test] and 2.26 µM [sample B, 1 test]"
same,TGI,[29],"> 100 µM [sample A, 1 test] and 9.16 µM [sample B, 1 test]"
same,GI50,[39],"> 100 µM [sample A, 1 test] and 3.74 µM [sample B, 1 test]"
